Numbering of substitutions follows the chain as printed. Names and notes keep the numbering of the source. ± gives the standard deviation of the averaged measurements. Laboratory Escherichia coli strains with one amino-acid change in an essential protein, pooled on minimal glucose agar with carbenicillin or gentamicin at twice the control MIC (plus kanamycin and chloramphenicol for the plasmids), 48 h. Fold change of barcode share against drug-free plates; higher = less susceptible. Active = above 20 in both replicates (the paper's putatively resistant). '<' = one read or none on drug, '>' = one read or none on a drug-free plate. Shares are relative, so most strains fall below 1 when a few take over. Listed are strains with at least 15 reads on both drug-free plates, and hits; most hits rest on fewer reference reads. Replicate rank correlation about 0.5. Edits are read from barcodes.
Molecular target: Escherichia coli (laboratory strain)
Test: barcode share on antibiotic plates over drug-free plates; higher = less susceptible
Experimental: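 A pool of E. coli strains, each edited to carry one amino-acid change in an essential protein, was grown for 48 h on minimal glucose agar with or without antibiotic; strain barcodes were sequenced; mean of two replicates.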

[1] = antibiotic: carbenicillin, 2× MIC (3.1 µg/mL)
[2] = antibiotic: gentamicin, 2× MIC (MIC 0.45 µg/mL)

B1: ppc L778W (protein)
chain: MNEQYSALRSNVSMLGKVLGETIKDALGEHILERVETIRKLSKSSRAGNDANRQELLTTLQNLSNDELLPVARAFSQFLNLANTAEQYHSISPKGEAASNPEVIARTLRKLKNQPELSEDTIKKAVESLSLELVLTAHPTEITRRTLIHKMVEVNACLKQLDNKDIADYEHNQLMRRLRQLIAQSWHTDEIRKLRPSPVDEAKWGFAVVENSLWQGVPNYLRELNEQLEENLGYKLPVEFVPVRFTSWMGGDRDGNPNVTADITRHVLLLSRWKATDLFLKDIQVLVSELSMVEATPELLALVGEEGAAEPYRYLMKNLRSRLMATQAWLEARLKGEELPKPEGLLTQNEELWEPLYACYQSLQACGMGIIANGDLLDTLRRVKCFGVPLVRIDIRQESTRHTEALGELTRYLGIGDYESWSEADKQAFLIRELNSKRPLLPRNWQPSAETREVLDTCQVIAEAPQGSIAAYVISMAKTPSDVLAVHLLLKEAGIGFAMPVAPLFETLDDLNNANDVMTQLLNIDWYRGLIQGKQMVMIGYSDSAKDAGVMAASWAQYQAQDALIKTCEKAGIELTLFHGRGGSIGRGGAPAHAALLSQPPGSLKGGLRVTEQGEMIRFKYGLPEITVSSLSLYTGAILEANLLPPPEPKESWRRIMDELSVISCDVYRGYVRENKDFVPYFRSATPEQELGKLPLGSRPAKRRPTGGVESLRAIPWIFAWTQNRLMLPAWLGAGTALQKVVEDGKQSELEAMCRDWPFFSTRLGMLEMVFAKADLWWAEYYDQRLVDKALWPLGKELRNLQEEDIKVVLAIANDSHLMADLPWIAESIQLRNIYTDPLNVLQAELLHRSRQAEKEGQEPDPRVEQALMVTIAGIAAGMRNTG
B1 was tested, and the “fold change of barcode share” value [1] was 0.894 ± 0.074 and the “fold change of barcode share” value [2] was 0.0173 ± 0.016.

B2: ppc L778Q (protein)
chain: B1 chain with W778Q
With B2 the “fold change of barcode share” value [1] was 1.3 ± 0.37 and the “fold change of barcode share” value [2] was 0.00999 ± 0.0067.

B3: ppc L778D (protein)
chain: B1 chain with W778D
B3 was tested, and the “fold change of barcode share” value [1] was 1.05 ± 0.024 and the “fold change of barcode share” value [2] was 0.0966 ± 0.083.
